{"source": "PubChem BioAssay AID504937", "about": "(National Center for Advancing Translational Sciences (NCATS), 2011)", "note": "Screen size: about 340,000 compounds; about 20 (0.006%) were called active. This list was built around the results that the source calls inconclusive (neither active nor inactive); the mix of calls is not that of the screen. Calls come from the whole dose curve; as a rule, active = well fitted inhibition curve with a large enough effect; inconclusive = small, poorly fitted or top-dose-only effect; inactive = no such curve, though single readings can be large or run the other way. Where the call is inconclusive, the potency comes from a doubtful curve fit. Potency is the fitted concentration of half-maximal effect; tags give direction and shape of the fitted curve.", "data": [{"target": "Sphingomyelin phosphodiesterase (Homo sapiens) (UniProt P17405)", "sequence (P17405 whole entry, looked up)": "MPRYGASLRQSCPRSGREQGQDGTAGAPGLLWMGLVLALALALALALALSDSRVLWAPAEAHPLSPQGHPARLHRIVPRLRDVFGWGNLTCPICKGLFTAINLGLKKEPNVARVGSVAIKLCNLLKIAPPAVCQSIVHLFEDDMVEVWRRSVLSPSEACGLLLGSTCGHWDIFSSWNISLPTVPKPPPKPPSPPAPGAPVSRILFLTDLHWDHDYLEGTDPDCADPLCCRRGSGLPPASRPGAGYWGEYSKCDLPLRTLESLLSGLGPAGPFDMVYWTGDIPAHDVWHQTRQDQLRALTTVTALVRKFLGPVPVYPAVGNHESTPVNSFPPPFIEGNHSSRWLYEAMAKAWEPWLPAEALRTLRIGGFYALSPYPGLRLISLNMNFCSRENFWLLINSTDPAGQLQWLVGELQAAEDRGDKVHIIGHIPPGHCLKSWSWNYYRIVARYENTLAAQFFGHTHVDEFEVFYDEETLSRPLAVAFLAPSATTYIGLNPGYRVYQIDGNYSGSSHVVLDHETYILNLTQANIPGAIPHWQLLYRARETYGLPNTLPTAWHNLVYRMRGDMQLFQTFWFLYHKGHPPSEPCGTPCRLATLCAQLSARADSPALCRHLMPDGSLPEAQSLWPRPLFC", "assay": "Inhibitors of Secretory Acid Sphingomyelinase (S-ASM): qHTS", "details": "placental ASM, HMU-PC fluorogenic substrate (series up to 57.5 µM), 60 min; activity change, negative = inhibition: at the top concentration", "in_short": "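Steps: dispense placental human ASM, pin compound, wait 10 min at room temperature, add HMU-PC0 substrate at 9 uM final, incubate 60 min at 37 °C, add stop solution raising pH to 10, read fluorescence.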", "values": [{"smiles": "C[C@H](NC(=O)c1nc[nH]c1C(=O)N[C@@H](CCCCNC(=O)OC(C)(C)C)C(=O)OC(C)(C)C)C(=O)OC(C)(C)C", "activity change, negative = inhibition": "inactive: -6.88%"}, {"smiles": "O=C(NCCCN1CCOCC1)c1ccc2c(=O)n(Cc3cccc(Br)c3)c(=S)[nH]c2c1", "Potency": "inconclusive: 89.1 µM [inhibitor, single point]"}, {"smiles": "O=C(CN1C(=O)/C(=C/c2ccc(F)cc2)SC1=S)N1CCN(CCc2ccccn2)CC1", "activity change, negative = inhibition": "inactive: -10.3%"}, {"smiles": "COC(=O)c1ccc(N2CCC(c3cc(-c4ccc(OC)cc4)n[nH]3)CC2)c([N+](=O)[O-])c1", "Potency": "inconclusive: 158 µM [inhibitor, partial curve, poor fit]"}, {"smiles": "CCN(CC)S(=O)(=O)c1cc([N+](=O)[O-])ccc1NNC(=O)Nc1ccccc1OC", "activity change, negative = inhibition": "inactive: -8.69%"}, {"smiles": "O=C(Nc1ccc(Br)cc1)C1CCCC1", "activity change, negative = inhibition": "inactive: -1.04%"}, {"smiles": "CCCCCCCCCCCCCC(=O)O", "Potency": "inconclusive: 224 µM [inhibitor, partial curve, poor fit]"}, {"smiles": "COc1cc(/C=C2\\COC/C(=C\\c3ccc(O)c(OC)c3)C2=O)ccc1O", "Potency": "inconclusive: 89.1 µM [inhibitor, single point]"}, {"smiles": "CCOC(=O)/C=C1\\SCC(=O)N1Cc1ccc(Br)cc1", "Potency": "inconclusive: 100 µM [inhibitor, partial curve, poor fit]"}, {"smiles": "Cc1c(Nc2nc(-c3ccc(Cl)cc3)cs2)c(=O)n(-c2ccccc2)n1C", "activity change, negative = inhibition": "inactive: -0.848%"}, {"smiles": "COc1cccc(CN2CC(C(=O)NC3CCC(O)CC3)CCC2=O)c1", "note": "(centres undefined)", "activity change, negative = inhibition": "inactive: -1.54%"}, {"smiles": "Cc1cccc(C(=O)OCC(=O)Nc2ccccc2C(=O)NC2CC2)c1", "activity change, negative = inhibition": "inactive: 0.382%"}, {"smiles": "CCOC(=O)N1CCN(S(=O)(=O)c2c(C)nc3scc(C)n3c2=O)CC1", "activity change, negative = inhibition": "inactive: -2.77%"}, {"smiles": "Cc1ccccc1-c1nc(CN2CCC(C(=O)NCCCN3CCCC(C)C3)CC2)c(C)o1", "note": "(centres undefined)", "Potency": "inconclusive: 79.4 µM [inhibitor, single point]"}, {"smiles": "Nc1nc(C(c2ccccc2)c2ccccc2)cs1", "Potency": "inconclusive: 112 µM [inhibitor, partial curve, poor fit]"}, {"smiles": "Cc1cc(C)c(O)c(-c2n[nH]c3c2C(c2cccc(O)c2)N(Cc2ccco2)C3=O)c1", "note": "(centres undefined)", "Potency": "inconclusive: 89.1 µM [inhibitor, single point]"}, {"smiles": "COc1ccc(-n2sc3c(c2=S)-c2cc(OC)ccc2NC3(C)C)cc1", "Potency": "inconclusive: 126 µM [inhibitor, partial curve, poor fit]"}, {"smiles": "N#Cc1nc(-c2ccc(OCc3ccc(Cl)cc3)cc2)oc1NCCCn1ccnc1", "Potency": "inconclusive: 89.1 µM [inhibitor, partial curve]"}, {"smiles": "Cc1ccc(NC(NC(=O)c2cccnc2)C(Cl)(Cl)Cl)cc1", "note": "(centres undefined)", "activity change, negative = inhibition": "inactive: 3.52%"}]}]}
